# Experimental data reported in the supplement of paper PMC4723716.
# The full ranking holds about 3,600 compounds; the median of “viability index relative to DMSO control” is about 0.81, and the lowest 2% start at about 0.13. The list shows a part of the results.
# System: Plasmodium falciparum NF54 stage V gametocytes
# Test: viability index relative to DMSO control (fraction); higher = less gametocyte killing
# Conditions: 1.25 µM, incubation time: 72 h
# 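Also: 384-well serum-free SaLSSA: MitoTracker Red CMXRos staining with saponin lysis, high-content imaging, treated-well particle count divided by plate-mean count of DMSO wells.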
row,SMILES,viability index
1,Cc1ccc(N=C2NC(=O)C(=Cc3ccc(N(C)C)cc3)S2)cc1,0.61
2,O=c1c(NCc2ccco2)nc2cc(Cl)ccc2n1CCNc1ncc(C(F)(F)F)cc1Cl,1.07
3,Cc1cc(N)c2ccccc2[n+]1CCCCCCCCCC[n+]1c(C)cc(N)c2ccccc21,0.606
4,CC[n+]1cc(C)ccc1C=Cc1ccc(N(C)C)cc1,1.09
5,Cn1c(=O)c2c(ncn2CC(O)CN2CCCC2)n(C)c1=O (configuration not stated),0.867
6,Cc1ccccc1C(=O)N1CCC(n2nccc2NC(=O)CCOc2ccccc2)CC1,0.827
7,CCN(CC)CCCNC(=S)N(Cc1cc2ccc(OC)cc2[nH]c1=O)C1CCCCC1,0.968
8,OC1(c2ccc(Br)cc2)CCN(C2CCN(CCc3ccccc3)CC2)CC1,1.04
9,CCOc1cc(C(=O)Nc2ccc(-c3nc4ccccc4[nH]3)cc2)cc(OCC)c1OCC,0.538
10,O=C1C(Nc2ccccc2)=C(N2CCCCC2)C(=O)c2ccccc21,0.63
11,Cc1ccc(OCCCCCCNCCO)c(C)c1,0.951
12,COc1ccc(-c2cc(C(=O)Nc3cc(Oc4ccc(NC(C)=O)cc4)cc([N+](=O)[O-])c3)c3ccccc3n2)cc1,0.664
13,COc1ccc(NC2=C(c3ccc(C(F)(F)F)cc3)C(=O)c3ccccc32)cc1,1.06
14,CN(C)CCNC(=O)c1cc2c(-c3ccc(Cl)cc3)nn(C)c2s1,0.821
15,O=C(Nc1cc(C(F)(F)F)ccc1N1CCOCC1)C(Cl)(Cl)Cl,1.31
16,CCOc1ccc(N2C(=O)C3C4CC(C(Br)C4Br)C3C2=O)cc1 (configuration not stated),0.889
17,Cc1oc(C)c2c(=O)cc(-c3cccs3)cc(O)c12,0.619
18,Cc1cc(C)n(N=Cc2ccc(Cl)cc2)c(=O)c1C#N,0.745
19,CC(C)OC(=O)CSc1nnc(CNc2nc(-c3ccccc3)cs2)n1C,0.971
20,O=C(Nc1ccc(F)cc1)N1CCN(c2ccc3nnc(-c4ccccc4)n3n2)CC1,0.801
21,CCOC(=O)C1=C(C)NC(=Cc2cc(C)n(-c3ccc(C)cc3)c2C)C1=O,0.421
22,O=[N+]([O-])c1ccc(N2CCCN(C(=S)Nc3ccc(F)cc3Br)CC2)nc1,0.261
23,COc1cccc(-c2cc(N=C(NCc3ccco3)SC)[nH]n2)c1,1.13

row,SMILES,viability index
1,O=C(Nc1ccccc1Cl)C1CCCN1C(=O)OCc1ccccc1 (configuration not stated),0.846
2,N#Cc1ccc(N2CCN(C(=O)c3ccc(F)cc3Cl)CC2)cc1,0.851
3,O=C1CN(C(=O)CCC2CCCC2)C(c2ccc(F)cc2)c2cc(Cl)ccc2N1 (configuration not stated),0.751
4,CCOC(=O)c1cnc2c(ccc3ccccc32)c1O,0.382
5,C=CCCC(=O)N1CCC(C(=O)Nc2ccc(-c3nc4ccccc4o3)cc2)CC1,0.846
6,Cc1cccnc1NC(=O)CCCC(=O)O,0.845
7,CCOc1ccc(C2C(C(=O)OC)=CNC=C2C(=O)OC)cc1Cl,1.01
8,Cc1nc(N2CCN(c3ccccn3)CC2)c2c(C)c(C(=O)Nc3c(F)cccc3F)sc2n1,1.17
9,Nc1ccc2[nH]c(C=Cc3ccc(Cl)cc3)nc2c1,0.933
10,CCCOC(=O)C1=C(C)NC2=C(C(=O)CC(c3ccc(OC)c(OC)c3)C2)C1c1ccccc1Cl (configuration not stated),0.317
11,Clc1ccc(-c2c[n+](CCc3ccccc3)c3n2CCC3)cc1,0.785
12,CC(=O)N(C)C1=C(N2CCCC2)C(=O)c2ccccc2C1=O,0.865
13,O=C(C1=C(O)C(=O)N(CCCn2ccnc2)C1c1ccccc1[N+](=O)[O-])c1ccccc1 (configuration not stated),0.638
14,Cc1cccc(-c2nc3cc(NC(=O)c4ccc([N+](=O)[O-])o4)ccc3o2)c1,0.0679
15,CN1C(=Cc2cccc[n+]2C)C=Cc2ccccc21,0.902
16,CCN(Cc1ccccc1)Cc1c(O)ccc2oc(C)c(C(=O)Nc3ccc(C)cc3C)c12,1.13
17,COc1ccc(N2CCN(C(CNC(=O)CC(C)C)c3ccco3)CC2)cc1 (configuration not stated),0.612
18,COc1ccc(-n2c(COc3cccc4ccccc34)nnc2SC)cc1,0.724
19,COc1ccccc1-n1c(=O)c2c3c(sc2n2c(C)nnc12)CCC3,0.865
20,COc1ccc(OC)c(C=NNC(=O)Cc2cc(O)[nH]n2)c1,0.834
21,c1ccc(CSc2nnc3c(n2)[nH]c2ccccc23)cc1,0.865
22,c1cc(-c2cccc3cccnc23)nc(N2CCN(CCN3CCCC3)CC2)c1,0.899
23,Fc1ccc(-c2c[n+](Cc3ccc(Cl)cc3)c3n2CCC3)cc1,0.933

row,SMILES,viability index
1,COc1ccccc1NC1=CC(=NS(=O)(=O)c2ccc(F)cc2)c2ccccc2C1=O,0.189
2,CC(=O)c1c(C)oc2ccc(NS(=O)(=O)c3cccc(C(=O)O)c3)cc12,0.985
3,CC(C=NNC(N)=S)=NNC(N)=S,0.131
4,Cc1ccc(C2(C)CC(C)(C)N(C(=O)Cc3ccccc3)c3ccc(C(c4ccccc4)(c4ccccc4)c4ccccc4)cc32)cc1 (configuration not stated),0.853
5,N=C1NC(=O)C(=CC=Cc2ccc([N+](=O)[O-])o2)S1,0.0408
6,CCOc1cc(C2C(C(=O)OC)=CNC=C2C(=O)OC)cc(Br)c1OCC,0.629
7,Cc1ccc2nc(Nc3ncc4c(n3)CC(C)(C)CC4=O)nc(C)c2c1,0.992
8,C[n+]1c(C=Cc2ccc(F)cc2)ccc2ccccc21,0.733
9,N#Cc1c2c(c(N3CCN(Cc4ccccc4)CC3)n3c1nc1ccccc13)CCC2,1.03
10,CCCCc1ccc(NC(C)=O)cc1,0.497
11,CCc1ccc(C(=O)C[n+]2cc(-c3ccc(OC)cc3)n3c2CCC3)cc1,0.892
12,CCOC(=O)N1CCN(C(=O)c2ccc(N3CC4CC(C3)c3cccc(=O)n3C4)c(NS(=O)(=O)c3ccc4c(c3)OCCO4)c2)CC1 (configuration not stated),0.959
13,CC1=C(C(=O)OC2CCCC2)C(c2ccc(Cl)cc2)C2=C(CC(c3ccc(Cl)cc3)CC2=O)N1 (configuration not stated),0.675
14,COc1ccc2cc3[n+](cc2c1OC)CCc1cc2c(cc1-3)OCO2,0.822
15,COC(=O)c1cccc(NC(=O)C(=Cc2cccc([N+](=O)[O-])c2)NC(=O)c2ccccc2OC)c1,0.936
16,CCOC(=O)C1=C(C)NC2=C(C(=O)CC(c3ccc(OC)c(OC)c3)C2)C1c1cccc(Cl)c1 (configuration not stated),0.71
17,COc1ccc(CN2CCOc3ccc(C(C)(O)CN(C)C)cc3C2)cc1C (configuration not stated),1
18,O=C1C=C(Nc2cccc(C(F)(F)F)c2)C(=O)c2ccccc21,0.0673
19,CCC(=Cc1sc2ccc3ccccc3c2[n+]1C)C=C1Sc2ccc3ccccc3c2N1C,0.681
20,Fc1ccc(Nc2nc(NCc3ccco3)c3ccccc3n2)cc1,0.739
21,CCOC(=O)c1c(NC(=O)C(C)Sc2ncnc3c2oc2ccccc23)sc2c1CCC2 (configuration not stated),0.678
22,COc1ccc(-c2c[n+](CC(=O)c3cccc(OC)c3)c3n2CCC3)cc1,0.74
23,N=c1c2c(n(CCc3ccccc3)c3c1CCC3)CCCC2,0.785

row,SMILES,viability index
1,Cc1ccc(C(=O)c2c(C)oc3ccc(O)cc23)cc1,0.849
2,CCN(CC)CCCNC(=S)N(CCN(C)C)Cc1cc2cc(C)cc(C)c2[nH]c1=O,0.763
3,CCc1ccc(Nc2cc(C)nc3nc(C)nn23)cc1,1.18
4,COC(=O)c1ccc(C2C3=C(O)CC(c4cccs4)CC3=Nc3ccccc3N2C(=O)c2ccccc2)cc1 (configuration not stated),0.571
5,CCOc1ccc(Br)cc1C=C1SC(=Nc2ccccc2CC)N(c2ccccc2CC)C1=O,0.712
6,COc1cccc(C(Nc2cc(C)ccn2)c2ccc3cccnc3c2O)c1 (configuration not stated),0.88
7,CC(=O)Nc1ccc(C(=O)N2CCC(Oc3cccc(CN(C)Cc4cccc5ccccc45)c3)CC2)cc1,1.12
8,Cc1ccc(CC(=O)Nc2ccc(I)cc2)cc1,1.41
9,O=C(C1CCC1)N1CCN(c2ccccn2)CC1,0.891
10,COC(=O)C1=C(C)NC2=C(C(=O)CC(c3ccc(OC)c(OC)c3)C2)C1c1ccc([N+](=O)[O-])cc1 (configuration not stated),0.56
11,Cc1ccccc1N1C(=O)C2C3c4ccccc4C(C(=O)O)(c4ccccc43)C2C1=O (configuration not stated),0.616
12,NCCNc1cc(-c2ccccc2)nc2ccccc12,1.12
13,O=C1NC(=Nc2ccccc2)C(=Cc2ccc(O)cc2)S1,0.455
14,Nc1ccc(C(=O)Nc2ccc(-c3nc4ccccc4o3)cc2)cc1,0.703
15,C=CCC1C=C(Cc2ccccc2)CC(CC=C)N1 (configuration not stated),1.02
16,Oc1ccc(Br)cc1CN1CCN(c2ccccn2)CC1,0.908
17,CCOC(=O)C1(CC2CCCCO2)CCN(C(=O)Nc2cccc(SC)c2)CC1 (configuration not stated),1.07
18,Cc1cc(N2CCC(C)CC2)nc(-n2nc(C)cc2C)n1,0
19,Cc1ccc(S(=O)(=O)N2CCN(C(=O)c3ccccc3)C2c2ccccc2)cc1 (configuration not stated),0.875
20,CCOC(=O)c1[nH]c2ccc(OC)cc2c1N=NN(C)C,0.627
21,CCc1c(C#N)c(N)nc2sc(C(=O)c3ccc(Br)cc3)c(N)c12,0.661
22,CCOc1ccc(CCNC(=O)Nc2ccc(F)cc2)cc1OCC,0.726
23,CC(=O)c1ccc(NC(=O)CN(C)S(=O)(=O)c2ccc3[nH]c4c(c3c2)CCCC4)cc1,0.867
